{
  "source": "a collection of fitness landscapes (doi:10.1016/j.celrep.2020.107928)",
  "parents": {"B1": {"name": "Caulobacter ParB omega fusion; a variant is named by its letters at X, in order, B8GW30 (parent)", "chain": "MESVVVGEPGMSEGRRGLGRGLSALLGEVDAAPAQAPGEQLGGSREAPIEILQRNPDQPRRTFREEDLEDLSNSIREKGVLQPILVRPSPDTAGEYQIVAGERAWRAAQRAGLKTVPIMVRELDDLAVLEIGIIENVQRADLNVLEEALSYKVLMEKFERTQENIAQTIGKSXSHVANXMRLLXLPDEVQSYLVSGELTAXHARAIAAAADPVALAKQIIEGGLSVRETEALARKAPNLSAGKSKGGRPPRVKDTDTQALESDLSSVLGLDVSIDHRGSTGTLTITYATLEQLDDLCNRLTRGI"}},
  "note": "Whole data set: some 81,000 sequences, median “one-hybrid fitness for binding parS DNA” near -0.17, cut for the highest 2% near 0.51. The list shows a part of the results.",
  "data": [
    {"variants_of": "B1", "assay": "one-hybrid fitness for binding parS DNA (scaled: cognate 1, non-cognate 0); higher = stronger binding", "details": "with parS DNA site", "how_it_was_run": "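On M9-minus-histidine containing 0.1 mM IPTG and 5 mM 3-AT, E. coli USO cells with a HIS3 reporter, site 19 bp from the promoter, grew 48 hours at 37°C to select Caulobacter ParB libraries randomised at four specificity codons. Plasmids from before and after were Illumina-sequenced, with three replicate libraries pooled and variants under 10 reads left out. Fitness is the log change in variant-to-wild-type read ratio, rescaled against cognate and non-cognate.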", "values": [
      {"variant": "KLRP", "one-hybrid fitness for binding parS DNA": "≤ 0.2"},
      {"variant": "ECRS", "one-hybrid fitness for binding parS DNA": "≤ 0.2"},
      {"variant": "LIIR", "one-hybrid fitness for binding parS DNA": "≤ 0.2"},
      {"variant": "LAVC", "one-hybrid fitness for binding parS DNA": "≤ 0.2"},
      {"variant": "PMDF", "one-hybrid fitness for binding parS DNA": "≤ 0.2"},
      {"variant": "CFST", "one-hybrid fitness for binding parS DNA": "≤ 0.2"},
      {"variant": "PNDQ", "one-hybrid fitness for binding parS DNA": "≤ 0.2"},
      {"variant": "QTER", "one-hybrid fitness for binding parS DNA": "≤ 0.2"},
      {"variant": "MGGV", "one-hybrid fitness for binding parS DNA": "≤ 0.2"},
      {"variant": "NWPC", "one-hybrid fitness for binding parS DNA": "≤ 0.2"},
      {"variant": "RRGR", "one-hybrid fitness for binding parS DNA": "≤ 0.2"},
      {"variant": "PTPC", "one-hybrid fitness for binding parS DNA": "≤ 0.2"},
      {"variant": "CAHW", "one-hybrid fitness for binding parS DNA": "≤ 0.2"},
      {"variant": "ANRT", "one-hybrid fitness for binding parS DNA": "≤ 0.2"},
      {"variant": "AENM", "one-hybrid fitness for binding parS DNA": "≤ 0.2"},
      {"variant": "RGSP", "one-hybrid fitness for binding parS DNA": "≤ 0.2"},
      {"variant": "STSW", "one-hybrid fitness for binding parS DNA": "≤ 0.2"},
      {"variant": "PQCH", "one-hybrid fitness for binding parS DNA": "≤ 0.2"},
      {"variant": "IDAT", "one-hybrid fitness for binding parS DNA": "≤ 0.2"},
      {"variant": "PKIY", "one-hybrid fitness for binding parS DNA": "≤ 0.2"},
      {"variant": "MPLN", "one-hybrid fitness for binding parS DNA": "≤ 0.2"},
      {"variant": "DYIF", "one-hybrid fitness for binding parS DNA": "≤ 0.2"},
      {"variant": "RQDK", "one-hybrid fitness for binding parS DNA": "≤ 0.2"},
      {"variant": "HRPC", "one-hybrid fitness for binding parS DNA": "≤ 0.2"},
      {"variant": "KWYT", "one-hybrid fitness for binding parS DNA": "≤ 0.2"},
      {"variant": "KKKL", "one-hybrid fitness for binding parS DNA": "≤ 0.2"},
      {"variant": "LCWL", "one-hybrid fitness for binding parS DNA": "≤ 0.2"},
      {"variant": "PSNE", "one-hybrid fitness for binding parS DNA": "≤ 0.2"},
      {"variant": "VWLC", "one-hybrid fitness for binding parS DNA": "≤ 0.2"},
      {"variant": "PYDR", "one-hybrid fitness for binding parS DNA": "≤ 0.2"},
      {"variant": "AIER", "one-hybrid fitness for binding parS DNA": "≤ 0.2"},
      {"variant": "HENS", "one-hybrid fitness for binding parS DNA": "≤ 0.2"},
      {"variant": "MERE", "one-hybrid fitness for binding parS DNA": "≤ 0.2"},
      {"variant": "LRHP", "one-hybrid fitness for binding parS DNA": "≤ 0.2"},
      {"variant": "WYSR", "one-hybrid fitness for binding parS DNA": "≤ 0.2"},
      {"variant": "VHAM", "one-hybrid fitness for binding parS DNA": "≤ 0.2"},
      {"variant": "IRRD", "one-hybrid fitness for binding parS DNA": "≤ 0.2"},
      {"variant": "GFNW", "one-hybrid fitness for binding parS DNA": "≤ 0.2"},
      {"variant": "CFSY", "one-hybrid fitness for binding parS DNA": "≤ 0.2"},
      {"variant": "YVTE", "one-hybrid fitness for binding parS DNA": "≤ 0.2"},
      {"variant": "SMQS", "one-hybrid fitness for binding parS DNA": "≤ 0.2"},
      {"variant": "NYMS", "one-hybrid fitness for binding parS DNA": "≤ 0.2"},
      {"variant": "ILPE", "one-hybrid fitness for binding parS DNA": "≤ 0.2"},
      {"variant": "CIGS", "one-hybrid fitness for binding parS DNA": "≤ 0.2"},
      {"variant": "YRLL", "one-hybrid fitness for binding parS DNA": "≤ 0.2"},
      {"variant": "DHYM", "one-hybrid fitness for binding parS DNA": "≤ 0.2"},
      {"variant": "YGTA", "one-hybrid fitness for binding parS DNA": "≤ 0.2"},
      {"variant": "WMSG", "one-hybrid fitness for binding parS DNA": "≤ 0.2"},
      {"variant": "MVQC", "one-hybrid fitness for binding parS DNA": "≤ 0.2"},
      {"variant": "QACN", "one-hybrid fitness for binding parS DNA": "≤ 0.2"},
      {"variant": "VMAP", "one-hybrid fitness for binding parS DNA": "≤ 0.2"},
      {"variant": "ALNT", "one-hybrid fitness for binding parS DNA": "≤ 0.2"},
      {"variant": "WCVS", "one-hybrid fitness for binding parS DNA": "≤ 0.2"},
      {"variant": "VAPP", "one-hybrid fitness for binding parS DNA": "≤ 0.2"},
      {"variant": "RHSP", "one-hybrid fitness for binding parS DNA": "≤ 0.2"},
      {"variant": "RTWD", "one-hybrid fitness for binding parS DNA": 0.22},
      {"variant": "YNRG", "one-hybrid fitness for binding parS DNA": "≤ 0.2"},
      {"variant": "ADSL", "one-hybrid fitness for binding parS DNA": "≤ 0.2"},
      {"variant": "DLSW", "one-hybrid fitness for binding parS DNA": "≤ 0.2"},
      {"variant": "YSAL", "one-hybrid fitness for binding parS DNA": "≤ 0.2"},
      {"variant": "YWKT", "one-hybrid fitness for binding parS DNA": "≤ 0.2"},
      {"variant": "VLTC", "one-hybrid fitness for binding parS DNA": "≤ 0.2"},
      {"variant": "RLMY", "one-hybrid fitness for binding parS DNA": 0.49},
      {"variant": "EASV", "one-hybrid fitness for binding parS DNA": "≤ 0.2"},
      {"variant": "TTIS", "one-hybrid fitness for binding parS DNA": "≤ 0.2"},
      {"variant": "RAGP", "one-hybrid fitness for binding parS DNA": "≤ 0.2"},
      {"variant": "EPPN", "one-hybrid fitness for binding parS DNA": "≤ 0.2"},
      {"variant": "DSET", "one-hybrid fitness for binding parS DNA": "≤ 0.2"},
      {"variant": "KPTD", "one-hybrid fitness for binding parS DNA": "≤ 0.2"},
      {"variant": "QRTQ", "one-hybrid fitness for binding parS DNA": "≤ 0.2"},
      {"variant": "ACHI", "one-hybrid fitness for binding parS DNA": "≤ 0.2"},
      {"variant": "GPDS", "one-hybrid fitness for binding parS DNA": "≤ 0.2"},
      {"variant": "PNYR", "one-hybrid fitness for binding parS DNA": "≤ 0.2"},
      {"variant": "PIEE", "one-hybrid fitness for binding parS DNA": "≤ 0.2"},
      {"variant": "AMKV", "one-hybrid fitness for binding parS DNA": "≤ 0.2"},
      {"variant": "PYRP", "one-hybrid fitness for binding parS DNA": "≤ 0.2"},
      {"variant": "RYWD", "one-hybrid fitness for binding parS DNA": "≤ 0.2"},
      {"variant": "YHQC", "one-hybrid fitness for binding parS DNA": "≤ 0.2"},
      {"variant": "KMTL", "one-hybrid fitness for binding parS DNA": "≤ 0.2"},
      {"variant": "LTMD", "one-hybrid fitness for binding parS DNA": "≤ 0.2"},
      {"variant": "FCIL", "one-hybrid fitness for binding parS DNA": "≤ 0.2"},
      {"variant": "SPHL", "one-hybrid fitness for binding parS DNA": "≤ 0.2"},
      {"variant": "DMAI", "one-hybrid fitness for binding parS DNA": "≤ 0.2"},
      {"variant": "ASTY", "one-hybrid fitness for binding parS DNA": "≤ 0.2"}
    ]}
  ]
}
